Data published in patent publication US20250145646A1, “MACROCYCLIC COMPOUNDS AND DIAGNOSTIC USES THEREOF” (JANSSEN BIOTECH, INC., priority 2021, published 2025).
Values joined by “and” are separate entries in the source; they are usually repeats but may differ in a detail not shown here. Equal entries are not always repeated.

Columns and labels:
[1] = EDTA or DTPA challenge of purified 134Ce-labeled h11b6 conjugates (iTLC); format: physicochemical; conditions: 30 minutes, immediately after purification
Method: Immediately after purification, 25 μL of the purified product in vial ‘Elution’ was incubated with 50 μL of either 10 mM EDTA, pH˜6 or 10 mM DTPA, pH˜7 at 37° C. and 300 rpm for 30 minutes. 2 μL of the mixture was spotted on an TLC strip (SA) and eluted with a 10 mM EDTA solution (pH˜6).

[2] = Stability of purified 134Ce-labeled h11b6 conjugates stored at 2-8° C. (iTLC); format: physicochemical
Method: The purified ^134Ce-TOPA-h11b6 was stored at 2-8° C. Radiochemical purity was assessed by iTLC. The radiochemical purity at 4 h, was 99.1%, FIG. 15.
The purified ^134Ce-DOTA-h11b6 was stored at 2-8° C. Radiochemical purity was assessed by TLC. The radiochemical purity at 4 h was 96.3%, FIG. 16.

biotinyated hk2-FXa = test: Immunoreactive fraction, hk2-coated Dynabeads; format: binding, human
Method: Preparation of the Control beads: To each of two 2 ml Eppendorf tubes labeled C1 and C2 rinsed with 1 mL of 1% PBSF and the rinsate discarded. To each rinsed tube was added 1% PBSF (300 uL). Into C1 and C2 was added Dynabeads Streptavidin T1 (MS 0013) (40 uL).
Preparation of the QC sample: Into a 2 ml Eppendorf tube was added 1 mL of 1% PBSF, rinsed and the rinsate discarded. A further aliquot of 1% PBSF (1000 uL) was added followed by a sample of 134Ce-TOPA-h11b6 (5 uL). The tube was capped and gently swirled.
Preparation of the reference vials: To each of three 2 ml Eppendorf tubes labeled RF1, RF2 and RF3 was added 1 mL of 1% PBSF and the rinsate discarded. To each rinsed tube was added 1% PBSF (700 uL). […]
Tubes RF1, RF2, RF3, BCK1, BCK2, BCK3, Cl, C1-SUP, C1R1, C1R2, C1BD, C2, C2-SUP, C2R1, C2R2, C2BD, P1, P1-SUP, P1R1, P1R2, P1BD, P2, P2-SUP, P2R1, P2R2 and P2BD were placed in a gamma counter and counted.
All measurements were background subtracted. The average reference counts were determined. Non-specific binding was calculated by dividing the average of C1BD and C2BD by the average reference RF1, RF2 and RF3 divided by 3. The total binding was calculated from the average of P1BD+P2BD divided by the average reference. The immunoreactivity was calculated by subtracting the total non-specific binding from the total binding and multiplying by 100. […]

B1: ^134Ce-TOPA-h11b6 (conjugate)
heavy: QVQLQESGPGLVKPSDTLSLTCAVSGNSITSDYAWNWIRQPPGKGLEWIGYISYSGSTTYNPSLKSRVTMSRDTSKNQFSLKLSSVTAVDTAVYYCATGYYYGSGFWGQGTLVTVSS[left out - human IgG1 constant region]
light: DIVLTQSPDSLAVSLGERATINCKASESVEYFGTSLMHWYQQKPGQPPKLLIYAASNRESGVPDRFSGSGSGTDFTLTISSLQAEDVAVYYCQQTRKVPYTFGQGTKLEIKRTVAAPSVFIFPPSDEQLKSGTASVVCLLNNFYPREAKVQWKVDNALQSGNSQESVTEQDSKDSTYSLSSTLTLSKADYEKHKVYACEVTHQGLSSPVTKSFNRGEC
In the case of B1, the “intact radioconjugate after DTPA challenge” value ([1]; 10 mM DTPA pH~7, 37° C.) is reported as 89.0% and 89.4%, the “intact radioconjugate after EDTA challenge” value ([1]; 10 mM EDTA pH~6, 37° C.) is reported as 91.0% and 90.0% and the “radiochemical purity at 4 h” value [2] is reported as 99.1%. For the same molecule, the “Immunoreactive Fraction (IRF)” value (biotinyated hk2-FXa; 0 hr post synthesis) was 95.5% and the “Immunoreactive Fraction (IRF)” value (biotinyated hk2-FXa; 24 hrs post synthesis) was 96.5%.
